Laboratory results reported in the supplement of paper PMC8728848.
The list shows a part of the results.

Key:
Assay in all cases: glycan array binding signal (z-score within array); higher = stronger binding
Details in all cases: glycan notation: IUPAC condensed, linker removed
[1] = target: GlcNAc(b1-2)Gal(b1-3)GalNAc
In short: (§1)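 The Consortium for Functional Glycomics database supplied 3228 glycan arrays, of which those lacking an available protein sequence were dropped. The binding signal, a within-array Z-score, was averaged across arrays of the same protein sequence and across linkers. Negative scores can be read as non-binding.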

[2] = target: GlcNAc(b1-2)Man(a1-3)[GlcNAc(b1-2)Man(a1-6)]Man(b1-4)GlcNAc(b1-4)GlcNAc
In short: as §1

[3] = target: GlcNAc(b1-2)Man(a1-3)[GlcNAc(b1-2)Man(a1-6)]Man(b1-4)GlcNAc(b1-4)[Fuc(a1-6)]GlcNAc
In short: as §1

[4] = target: GlcNAc(b1-2)Man(a1-3)[GlcNAc(b1-4)][GlcNAc(b1-2)Man(a1-6)]Man(b1-4)GlcNAc(b1-4)GlcNAc
In short: as §1

[5] = target: GlcNAc(b1-2)Man(a1-3)[GlcNAc(b1-4)][GlcNAc(b1-2)Man(a1-6)]Man(b1-4)GlcNAc(b1-4)[Fuc(a1-6)]GlcNAc
In short: as §1

[6] = target: GlcNAc(b1-2)[GlcNAc(b1-4)]Man(a1-3)[GlcNAc(b1-2)Man(a1-6)]Man(b1-4)GlcNAc(b1-4)GlcNAc
In short: as §1

[7] = target: GlcNAc(b1-2)[GlcNAc(b1-4)]Man(a1-3)[GlcNAc(b1-4)][GlcNAc(b1-2)Man(a1-6)]Man(b1-4)GlcNAc(b1-4)GlcNAc
In short: as §1

[8] = target: GlcNAc(b1-2)[GlcNAc(b1-4)]Man(a1-3)[GlcNAc(b1-4)][GlcNAc(b1-2)[GlcNAc(b1-6)]Man(a1-6)]Man(b1-4)GlcNAc(b1-4)GlcNAc
In short: as §1

[9] = target: GlcNAc(b1-2)[GlcNAc(b1-4)]Man(a1-3)[GlcNAc(b1-4)][GlcNAc(b1-2)[GlcNAc(b1-6)]Man(a1-6)]Man(b1-4)GlcNAc(b1-4)[Fuc(a1-6)]GlcNAc
In short: as §1

[10] = target: GlcNAc(b1-2)[GlcNAc(b1-6)]Man(a1-6)[GlcNAc(b1-2)Man(a1-3)]Man(b1-4)GlcNAc(b1-4)GlcNAc
In short: as §1

[11] = target: GlcNAc(b1-2)[GlcNAc(b1-6)]Man(a1-6)[GlcNAc(b1-2)Man(a1-3)]Man(b1-4)GlcNAc(b1-4)[Fuc(a1-6)]GlcNAc
In short: as §1

[12] = target: GlcNAc(b1-2)[GlcNAc(b1-6)]Man(a1-6)[GlcNAc(b1-4)][GlcNAc(b1-2)Man(a1-3)]Man(b1-4)GlcNAc(b1-4)GlcNAc
In short: as §1

GlcNAc(b1-3)Fuc = target: GlcNAc(b1-3)Fuc
In short: as §1

GlcNAc(b1-3)Gal = target: GlcNAc(b1-3)Gal
In short: as §1

[13] = target: GlcNAc(b1-3)Gal(b1-3)GalNAc
In short: as §1

GlcNAc(b1-3)Gal(b1-4)Glc = target: GlcNAc(b1-3)Gal(b1-4)Glc
In short: as §1

[14] = target: GlcNAc(b1-3)Gal(b1-4)GlcNAc
In short: as §1

[15] = target: GlcNAc(b1-3)Gal(b1-4)GlcNAc(b1-2)Man(a1-3)[GlcNAc(b1-3)Gal(b1-4)GlcNAc(b1-2)Man(a1-6)]Man(b1-4)GlcNAc(b1-4)GlcNAc
In short: as §1

[16] = target: GlcNAc(b1-3)Gal(b1-4)GlcNAc(b1-2)Man(a1-3)[GlcNAc(b1-3)Gal(b1-4)GlcNAc(b1-2)Man(a1-6)]Man(b1-4)GlcNAc(b1-4)[Fuc(a1-6)]GlcNAc
In short: as §1

[17] = target: GlcNAc(b1-3)Gal(b1-4)GlcNAc(b1-2)[GlcNAc(b1-3)Gal(b1-4)GlcNAc(b1-6)]Man(a1-6)[GlcNAc(b1-3)Gal(b1-4)GlcNAc(b1-2)Man(a1-3)]Man(b1-4)GlcNAc(b1-4)GlcNAc
In short: as §1

[18] = target: GlcNAc(b1-3)Gal(b1-4)GlcNAc(b1-3)Gal(b1-4)GlcNAc
In short: as §1

[19] = target: GlcNAc(b1-3)Gal(b1-4)GlcNAc(b1-3)Gal(b1-4)GlcNAc(b1-2)Man(a1-3)[GlcNAc(b1-3)Gal(b1-4)GlcNAc(b1-3)Gal(b1-4)GlcNAc(b1-2)Man(a1-6)]Man(b1-4)GlcNAc(b1-4)GlcNAc
In short: as §1

[20] = target: GlcNAc(b1-3)Gal(b1-4)GlcNAc(b1-3)Gal(b1-4)GlcNAc(b1-2)Man(a1-3)[GlcNAc(b1-3)Gal(b1-4)GlcNAc(b1-3)Gal(b1-4)GlcNAc(b1-2)Man(a1-6)]Man(b1-4)GlcNAc(b1-4)[Fuc(a1-6)]GlcNAc
In short: as §1

[21] = target: GlcNAc(b1-3)Gal(b1-4)GlcNAc(b1-3)Gal(b1-4)GlcNAc(b1-2)[GlcNAc(b1-3)Gal(b1-4)GlcNAc(b1-3)Gal(b1-4)GlcNAc(b1-6)]Man(a1-6)[GlcNAc(b1-3)Gal(b1-4)GlcNAc(b1-3)Gal(b1-4)GlcNAc(b1-2)Man(a1-3)]Man(b1-4)GlcNAc(b1-4)[Fuc(a1-6)]GlcNAc
In short: as §1

[22] = target: GlcNAc(b1-3)Gal(b1-4)GlcNAc(b1-3)Gal(b1-4)GlcNAc(b1-3)Gal(b1-4)GlcNAc(b1-2)Man(a1-3)[GlcNAc(b1-3)Gal(b1-4)GlcNAc(b1-3)Gal(b1-4)GlcNAc(b1-3)Gal(b1-4)GlcNAc(b1-2)Man(a1-6)]Man(b1-4)GlcNAc(b1-4)GlcNAc
In short: as §1

[23] = target: GlcNAc(b1-3)Gal(b1-4)GlcNAc(b1-3)Gal(b1-4)GlcNAc(b1-3)Gal(b1-4)GlcNAc(b1-2)Man(a1-3)[GlcNAc(b1-3)Gal(b1-4)GlcNAc(b1-3)Gal(b1-4)GlcNAc(b1-3)Gal(b1-4)GlcNAc(b1-2)Man(a1-6)]Man(b1-4)GlcNAc(b1-4)[Fuc(a1-6)]GlcNAc
In short: as §1

[24] = target: GlcNAc(b1-3)Gal(b1-4)GlcNAc(b1-3)Gal(b1-4)GlcNAc(b1-3)Gal(b1-4)GlcNAc(b1-2)[GlcNAc(b1-3)Gal(b1-4)GlcNAc(b1-3)Gal(b1-4)GlcNAc(b1-3)Gal(b1-4)GlcNAc(b1-6)]Man(a1-6)[GlcNAc(b1-3)Gal(b1-4)GlcNAc(b1-3)Gal(b1-4)GlcNAc(b1-3)Gal(b1-4)GlcNAc(b1-2)Man(a1-3)]Man(b1-4)GlcNAc(b1-4)[Fuc(a1-6)]GlcNAc
In short: as §1

[25] = target: GlcNAc(b1-3)Gal(b1-4)GlcNAc(b1-3)Gal(b1-4)GlcNAc(b1-3)Gal(b1-4)GlcNAc(b1-3)Gal(b1-4)GlcNAc(b1-2)Man(a1-3)[GlcNAc(b1-3)Gal(b1-4)GlcNAc(b1-3)Gal(b1-4)GlcNAc(b1-3)Gal(b1-4)GlcNAc(b1-3)Gal(b1-4)GlcNAc(b1-2)Man(a1-6)]Man(b1-4)GlcNAc(b1-4)GlcNAc
In short: as §1

[26] = target: GlcNAc(b1-3)Gal(b1-4)GlcNAc(b1-3)Gal(b1-4)GlcNAc(b1-3)Gal(b1-4)GlcNAc(b1-3)Gal(b1-4)GlcNAc(b1-2)Man(a1-3)[GlcNAc(b1-3)Gal(b1-4)GlcNAc(b1-3)Gal(b1-4)GlcNAc(b1-3)Gal(b1-4)GlcNAc(b1-3)Gal(b1-4)GlcNAc(b1-2)Man(a1-6)]Man(b1-4)GlcNAc(b1-4)[Fuc(a1-6)]GlcNAc
In short: as §1

[27] = target: GlcNAc(b1-3)Gal(b1-4)GlcNAc(b1-3)Gal(b1-4)GlcNAc(b1-3)Gal(b1-4)GlcNAc(b1-3)Gal(b1-4)GlcNAc(b1-2)[GlcNAc(b1-3)Gal(b1-4)GlcNAc(b1-3)Gal(b1-4)GlcNAc(b1-3)Gal(b1-4)GlcNAc(b1-3)Gal(b1-4)GlcNAc(b1-6)]Man(a1-6)[GlcNAc(b1-3)Gal(b1-4)GlcNAc(b1-3)Gal(b1-4)GlcNAc(b1-3)Gal(b1-4)GlcNAc(b1-3)Gal(b1-4)GlcNAc(b1-2)Man(a1-3)]Man(b1-4)GlcNAc(b1-4)[Fuc(a1-6)]GlcNAc
In short: as §1

[28] = target: GlcNAc(b1-3)Gal(b1-4)GlcNAc(b1-3)Gal(b1-4)GlcNAc(b1-3)GalNAc
In short: as §1

[29] = target: GlcNAc(b1-3)Gal(b1-4)GlcNAc(b1-3)GalNAc
In short: as §1

[30] = target: GlcNAc(b1-3)Gal(b1-4)GlcNAc(b1-3)[GlcNAc(b1-3)Gal(b1-4)GlcNAc(b1-3)]GalNAc
In short: as §1

[31] = target: GlcNAc(b1-3)Gal(b1-4)GlcNAc(b1-6)[Gal(b1-3)]GalNAc
In short: as §1

[32] = target: GlcNAc(b1-3)Gal(b1-4)GlcNAc(b1-6)[GlcNAc(b1-3)Gal(b1-3)]GalNAc
In short: as §1

[33] = target: GlcNAc(b1-3)Gal(b1-4)GlcNAc(b1-6)[GlcNAc(b1-3)]Gal(b1-4)GlcNAc
In short: as §1

GlcNAc(b1-3)GalNAc = target: GlcNAc(b1-3)GalNAc
In short: as §1

GlcNAc(b1-3)Man = target: GlcNAc(b1-3)Man
In short: as §1

[34] = target: GlcNAc(b1-3)[GlcNAc(b1-4)][GlcNAc(b1-6)]GlcNAc
In short: as §1

[35] = target: GlcNAc(b1-3)[GlcNAc(b1-6)]Gal(b1-4)GlcNAc
In short: as §1

[36] = target: GlcNAc(b1-3)[GlcNAc(b1-6)]GalNAc
In short: as §1

[37] = target: GlcNAc(b1-4)Gal(b1-4)GlcNAc
In short: as §1

GlcNAc(b1-4)GlcNAc = target: GlcNAc(b1-4)GlcNAc
In short: as §1

[38] = target: GlcNAc(b1-4)GlcNAc(b1-4)GlcNAc
In short: as §1

[39] = target: GlcNAc(b1-4)GlcNAc(b1-4)GlcNAc(b1-4)GlcNAc(b1-4)GlcNAc
In short: as §1

B1: CBM13 2a (Mycobacterium tuberculosum), P64849 (protein)
chain: DGPVQLKSRLGDVCLDAPSGSWFSPLVINPCNGTDFQRWNLTDDRQVESVAFPGECVNIGNALWARLQPCVNWISQHWTVQPDGLVKSDLDACLTVLGGPDPGTWVSTRWCDPNAPDQQWDSVPLEHHHHHH
glycan array binding signal (z-score) [1]: -0.328
glycan array binding signal (z-score) [2]: -0.249
glycan array binding signal (z-score) [3]: -0.038
glycan array binding signal (z-score) [4]: -0.458
glycan array binding signal (z-score) [5]: -0.311
glycan array binding signal (z-score) [6]: -0.127
glycan array binding signal (z-score) [7]: -0.318
glycan array binding signal (z-score) [8]: -0.276
glycan array binding signal (z-score) [9]: -0.406
glycan array binding signal (z-score) [10]: 0.094
glycan array binding signal (z-score) [11]: -0.254
glycan array binding signal (z-score) [12]: -0.256
glycan array binding signal (z-score) (GlcNAc(b1-3)Fuc): -0.33
glycan array binding signal (z-score) (GlcNAc(b1-3)Gal): -0.226
glycan array binding signal (z-score) [13]: -0.175
glycan array binding signal (z-score) (GlcNAc(b1-3)Gal(b1-4)Glc): -0.218
glycan array binding signal (z-score) [14]: -0.241
glycan array binding signal (z-score) [15]: -0.364
glycan array binding signal (z-score) [16]: 0.006
glycan array binding signal (z-score) [17]: 0.452
glycan array binding signal (z-score) [18]: -0.266
glycan array binding signal (z-score) [19]: 2.24
glycan array binding signal (z-score) [20]: -0.151
glycan array binding signal (z-score) [21]: 0.312
glycan array binding signal (z-score) [22]: 0.109
glycan array binding signal (z-score) [23]: -0.087
glycan array binding signal (z-score) [24]: 0.03
glycan array binding signal (z-score) [25]: -0.137
glycan array binding signal (z-score) [26]: -0.169
glycan array binding signal (z-score) [27]: 0.303
glycan array binding signal (z-score) [28]: 2.54
glycan array binding signal (z-score) [29]: -0.396
glycan array binding signal (z-score) [30]: -0.326
glycan array binding signal (z-score) [31]: -0.18
glycan array binding signal (z-score) [32]: -0.173
glycan array binding signal (z-score) [33]: -0.195
glycan array binding signal (z-score) (GlcNAc(b1-3)GalNAc): -0.188
glycan array binding signal (z-score) (GlcNAc(b1-3)Man): -0.274
glycan array binding signal (z-score) [34]: -0.389
glycan array binding signal (z-score) [35]: -0.462
glycan array binding signal (z-score) [36]: -0.338
glycan array binding signal (z-score) [37]: -0.553
glycan array binding signal (z-score) (GlcNAc(b1-4)GlcNAc): -0.282
glycan array binding signal (z-score) [38]: -0.313
glycan array binding signal (z-score) [39]: -0.213
